# Test results: the supplement of paper PMC10126150
# Values marked as one replicate rest on one cluster of the flow cell; about a third of the high ones do not repeat.
# System: ATP
# Assay: switch fluorescence ratio, 500 uM ATP over buffer (Cy3 cluster intensity, sum of 5 cycles each) (fold (ratio)); higher = stronger signal-on switching upon ATP binding; sequences stand for … in TCGTCGGCAGCGTCAGATGTGTATAAGAGACAGTTTTTTTTTTTTTTTTTTTTTTTTT…TC
# Conditions: aptamer strand: ATP DNA aptamer (quencher-CACCTGGGGGAGTATTGCGGAGGAAGG + anchor), 100 nM annealed; ATP concentration: 500 uM; one replicate
# Outline: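 Values give the fluorescence ratio for each switch-domain sequence, averaged from per-cluster ratios of summed target-cycle to summed buffer-cycle Cy3 intensity. The Cy3-labelled switching-strand clusters sat on a modified Illumina MiSeq flow-cell, were annealed to 100 nM quencher-labelled ATP aptamer, and were imaged in selection buffer, then after 15 min with 500 uM ATP at 22 °C. Five cycles ran with NaOH stripping and re-annealing between them, and clusters outside 100-1000 RFU were excluded.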
# 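Note: ATP exposure 15 min at 22 °C before imaging.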
row,Sequence,switch fluorescence ratio
1,CATACGCCTC,3.74
2,TGCAAGCCTT,1.1
3,GGTGATCGTC,1.03
4,GGGAGCAGCA,1.04
5,GTTATAGCAG,0.966
6,ACTTCTGAGT,1
7,AGTTGAAGG,1.04
8,TTATATTATA,0.969
9,CAGGAGTTTT,1
10,AGGGTGAAGT,1.05
11,TTGGAATATG,0.995
12,CCGCGAGTAA,2.12
13,CGCTCCCATA,1.82
14,CGAAGAGGAA,0.994
15,CAGAACATCG,1.03
16,TTGGTAGACG,1.01
17,ACTGCATGA,1.07
18,ACAATCGCG,1
19,TTGACTCATA,1.05
20,GACATCGCGA,0.975
21,TGAAATAAAG,1.01
22,TAGGAGTGG,0.959
23,ACCACCGGGG,1.06

row,Sequence,switch fluorescence ratio
1,AACCGATGT,0.989
2,TAGCACAAAC,1.57
3,CTTCCGGAGT,5.63
4,TCCCGCCATA,2.16
5,CCGGTGGTCA,1.14
6,TGAGGTAGCA,1.04
7,CGAAGTAGAC,2.41
8,GAACGGAAAC,2.92
9,CCAGGCGCT,1.13
10,CAAGAATTAT,0.956
11,TCATATTAAT,1.29
12,ACAATGACCA,1.01
13,TTATATCATG,0.984
14,ACTCCCTAAA,1.27
15,TTGCTTCTAT,0.986
16,TCTTGGCCGC,1.04
17,TAATGAACAG,1.02
18,GCTTATCGGG,1.02
19,CCTTCATT,1.04
20,GTCGAAACGG,0.99
21,TGACGATCAT,1.02
22,CGATCGTATG,0.897
23,ATCACGGGCG,0.976

row,Sequence,switch fluorescence ratio
1,CGGTGCTGG,0.963
2,TGGTAGACCC,0.995
3,TATTTAGCTA,1.03
4,GTCATAGTAG,1.01
5,GTCTGACGTA,1.07
6,CACGCGCTTT,1.01
7,TGACCCGCTT,1.49
8,CTTGGTGCGT,0.975
9,ATCATACCCG,1.02
10,ATCAGTTAT,0.95
11,TATGCATAGT,0.999
12,AAAGATACA,0.983
13,TTCCCATGAG,0.976
14,CCGATTTTGA,0.994
15,TATAAAATAA,1.06
16,AAGAGAACCT,1.98
17,GGATCGCAT,1.1
18,TTGGGTAAAC,1.07
19,AAAGCGGAAG,0.983
20,CTCACCGGCA,1.06
21,CCTGGTATAT,1.04
22,ACGAGCGCCT,1.04
23,CCTGCTAGGC,1.93

row,Sequence,switch fluorescence ratio
1,GCACTGGAGG,0.973
2,ACACGTAACG,1.19
3,AGGATCGGGC,0.95
4,CAATAAATGC,2.03
5,TGGCCCCGCG,1.02
6,AAACTGTGTA,0.993
7,TTGGCGATTG,1
8,AGGATCTGTA,0.916
9,CGCTGACTCT,1.2
10,TAAAGGCGAA,1.03
11,CTTAAATGTG,1.02
12,ACGTGTGTGA,1.06
13,CCGCCCTCGC,3.46
14,GAACGAGCCC,1.09
15,GAGGAGTAGT,0.96
16,ACAATGGGAA,1.04
17,TTCAGTTAGG,0.942
18,GCTACGAGCC,1.28
19,TGGGTTTAAA,1
20,TCAGGATTAT,1
21,CGATGTAAGC,1.38
22,GCGTGTGCG,0.994
23,GTAAGAACAA,1.02

row,Sequence,switch fluorescence ratio
1,CGGTGAGACG,1.05
2,GCGTCTCAAT,1.04
3,GAGGACGATC,1.01
4,GTGTGTTCAG,0.978
5,AGCTACGCTT,1.02
6,ACCAAGGCTC,1.15
7,GTGTCCCCGG,1.03
8,TGCTTCAGTT,1.03
9,GCAGGTGCGT,1.11
10,ACGCTTTAAT,1.05
11,GCAAGTCAAC,1.11
12,GGGAGGAGCG,0.966
13,CGCGTTCGGG,0.993
14,TGCTATTGGG,0.967
15,GCATTTACGG,1.1
16,TCACGGTGT,1.05
17,AGAAGCTTAG,0.981
18,CCTTATTCGT,0.986
19,GGTCCGGACG,0.965
20,ACTATTAGTG,0.984
21,GCTCTTGGAA,1.07
22,AAGGACTTG,1.01
23,TACGGGAC,1.29

row,Sequence,switch fluorescence ratio
1,CGCATGGAAC,1.82
2,ACATGCAGAG,1.04
3,ACGGAGTAGC,1.06
4,GTAGAATCCT,1.07
5,GATGTACCGT,1.05
6,CTGTAACGAC,1.16
7,GAAGACCAGG,0.982
8,GTAAATCGGC,1.01
9,CGATAGATCG,0.981
10,GTTATATATA,0.948
11,CCCACGGAGG,1.04
12,CGCTTCTTAG,1.02
13,TGTGGACTTA,0.953
14,GGGGACTCGC,1.01
15,AGTCTAGGGT,0.975
16,CGTTACGGTT,1.01
17,ATCAACACAA,0.978
18,CTCGTTTACA,1.01
19,GCCTCTTTGT,0.983
20,CGCTCTGCCT,1.02
21,GGGCCGTGTT,0.973
22,GTCCTATTTT,0.982
23,CGGAAGCCCA,0.975

row,Sequence,switch fluorescence ratio
1,CGCAATGTGA,2.93
2,CACCTGTTCG,0.975
3,AGTGGTACT,1
4,TATTTTTCTA,1
5,GGCTATCGTG,1.01
6,GCCGCCGAGG,0.978
7,GGCGCCAGAG,0.979
8,TGAAATCTAT,0.977
9,TAGATTGCCA,0.999
10,GGAACGGTTG,0.969
11,AGACTGACGG,0.975
12,AGTTAATGC,1.09
13,TTACGCAGGA,1.06
14,TATGGCGTCA,0.998
15,CACTTAACAT,1.14
16,TCAGACTTCA,1.01
17,ATGTTTTTTA,0.951
18,ACTTGCCGTG,1.05
19,GGCATGGAGC,0.993
